Test results from the supplement of paper PMC3334620.
Over roughly 33,000 sequences, “E-score (-0.5 to 0.5)” has its median near -0.035; the highest 2% begin near 0.34. The list shows a part of the results.

Each sequence was assayed against T1, Mot3 (UniProt P54785) (assay: PBM E-score (8-mer binding enrichment) (E-score (-0.5 to 0.5)); higher = stronger / more preferred TF binding; most listed sequences are background and not binding sites). Details: protein concentration: 200 nM; construct: GST-full length.
T1 sequence: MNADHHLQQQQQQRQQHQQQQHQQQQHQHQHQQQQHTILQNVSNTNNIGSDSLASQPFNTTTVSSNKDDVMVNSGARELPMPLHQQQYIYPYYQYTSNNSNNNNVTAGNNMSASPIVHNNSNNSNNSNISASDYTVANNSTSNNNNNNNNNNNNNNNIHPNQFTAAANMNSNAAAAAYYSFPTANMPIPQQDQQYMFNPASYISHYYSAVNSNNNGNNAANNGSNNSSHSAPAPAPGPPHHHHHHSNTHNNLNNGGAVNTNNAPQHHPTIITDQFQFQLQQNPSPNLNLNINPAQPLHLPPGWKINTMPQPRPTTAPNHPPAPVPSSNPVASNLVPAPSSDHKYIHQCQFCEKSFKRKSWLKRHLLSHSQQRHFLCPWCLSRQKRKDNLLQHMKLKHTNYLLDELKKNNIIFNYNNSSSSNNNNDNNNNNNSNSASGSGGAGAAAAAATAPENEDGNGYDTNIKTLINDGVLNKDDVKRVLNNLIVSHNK
How it was run: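 PURExpress in vitro transcription/translation supplied GST-tagged yeast transcription factors, either full-length or DNA-binding domain. Applied at about 100-200 nM to universal all-10-mer Agilent arrays double-stranded by primer extension, the bound protein was detected with fluorescent anti-GST. E-scores, modified Wilcoxon-Mann-Whitney statistics, were given by the Universal PBM Analysis Suite to ungapped eight-base words pooled with their reverse complements after masliner normalisation.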

Sequence	PBM E-score
CTCCCGCC	-0.374
AGCAGAGG	-0.27
ACGTTCTC	0.0807
ATCTGAGG	-0.123
CGACCCAA	-0.154
GAATTGTC	0.0275
AGGGGCGA	-0.274
TTATTCAA	0.145
GTGGTTTA	0.0399
CAGAGCGA	-0.234
AACCCTCG	0.0231
CCTCGCAA	-0.138
ACATCTAA	0.094
GCGCGCCA	-0.118
GCATACGC	0.0475
AGGGTCCA	-0.297
AGTCAAAT	0.00588
ATGATAGG	-0.0315
AGCAGTAA	-0.178
ACCTCGTG	0.0532
CTCTAATA	0.15
AACAGCCA	0.153
ATTATGTG	0.165
ACTTATTG	-0.0335
AAGGGTTC	-0.142

Sequence	PBM E-score
AAACTGAA	0.0399
ACGACCGG	-0.236
CCTTTACA	0.392
CCACGATA	-0.107
CGAGTTCA	0.111
AAGGATAC	-0.00777
GGGCCTAA	-0.0056
ATGTCGTC	0.102
ACTTCGCC	-0.076
AGCGAGAG	-0.117
ATAGACGG	-0.107
CTGACCAG	-0.174
TAACTGTA	0.0391
AGTTACGC	0.0795
GCCACGAC	-0.0741
AGTAGAGG	-0.103
CTCTGTTA	0.0752
GTGTGGAA	0.135
CCATGGAA	0.0211
AATGACCT	-0.0034
ATTGGAAC	-0.0261
GCACTGTA	0.0512
TAGTATCA	0.0719
GAAAGGAA	0.29
AGGTGATG	0.0871

Sequence	PBM E-score
CTACATCA	0.112
ATTGCGCG	0.106
CATAAGGC	0.0875
ATCATTTA	0.187
GACACGGC	0.173
GGAAGCAA	-0.00737
ACCTAATC	0.114
AAAGATAT	-0.00043
GAAACATC	0.00945
CACGCCCG	-0.0362
CCAGATTC	-0.128
TCGCAGCA	-0.0628
GAATGCCC	-0.255
ATGTGGAG	-0.101
TCGCATAA	0.012
GTGATACA	0.215
AGATTGCC	0.211
CGACAATA	0.0483
CATCCGTC	-0.101
GTCCTTCA	-0.034
CTCCCAAG	-0.165
ATTAGCCC	-0.179
ATGCCTGA	0.376
AAGTTTAA	0.068
AAAGGGTT	-0.0597

Sequence	PBM E-score
CGAACGTC	-0.214
ACATACAA	0.221
GACCTGCA	-0.0447
CTCACGTA	0.0428
AATACAGT	0.143
AACGAGAC	-0.11
CATACAAA	0.203
AGGTGCTG	0.135
AAAATTAG	0.0165
AAACCCTG	0.0467
TACCCCAA	-0.217
CCCCAGCG	-0.132
CACTCGGG	-0.269
ATTGGCGA	-0.111
GTTTAGGA	0.0731
AAGGGTCT	-0.234
ACCAGTAG	-0.0459
CTTGGATA	-0.039
AATCACCT	0.0059
AGAGCGGA	-0.0946
CATGGTTA	0.157
CGAACCCA	-0.0664
AAACTCTC	-0.194
AGCCTCAT	-0.0907
ATCTCATC	-0.191

Sequence	PBM E-score
AAGGACTT	-0.132
CGCCACCG	-0.331
CAAATCCA	-0.143
CTGTACGA	0.0692
AGTGTGAG	-0.236
ATAACCCG	-0.189
CATTACGA	0.111
AACGATAA	-0.0699
CCTGGGAA	-0.0224
CCGATTCG	-0.0752
ACGGTCAA	0.05
CGTCATCC	0.0205
AAAGGATC	0.118
CCTGATCA	-0.0775
CCTCTAAA	0.0994
AGCATCTC	-0.189
ACAATGCC	0.24
GCCTTGCA	-0.00236
ATAAAGGG	-0.102
AGCAGAGC	-0.0971
AGGACGTC	-0.0355
GTCCCTAA	-0.0747
CTCGCAAA	0.0288
GACTGTAC	0.0169
CACCATCG	-0.0846

Sequence	PBM E-score
ACCCTCTC	-0.197
GCACAAAA	0.143
AAAAACCA	0.0205
GACGACGA	-0.222
GGAAATCC	-0.0837
CATGTGAG	0.0531
GCGATAAC	-0.0154
GGTATTAA	0.229
AGACTGAG	-0.132
CGGACCAC	-0.159
CATTTGTA	0.167
AAAGTTAC	0.145
AGGGGCAT	0.0444
TACAAATA	0.161
AAAGACAT	0.0698
AGCCCGCT	-0.341
CGACCATA	-0.252
ATACGTCG	0.0546
CGAACTAA	0.031
CGCCTGCA	0.23
ACGGACTG	-0.0723
AACTAGGG	-0.105
ACAAAAAA	0.259
AAACAAAA	0.127
TACCTAGA	0.252

Sequence	PBM E-score
CCCGCAAA	0.0614
CAGGAAAA	0.427
CGCGAGAA	-0.142
CTCGCCTA	-0.183
CACTGTCA	-0.0683
CCGTATGC	-0.325
AACAGATG	0.02
AGCCCTCG	-0.13
CAGTTAAA	0.0473
TTCTTAAA	-0.0819
AACCTAAG	0.139
GCGCGACC	-0.0107
GTCCATGA	-0.0639
CAGAAGGA	0.00219
AGGGCGAC	-0.207
AACCGCGA	0.117
TCACCGCA	-0.149
CCAGCTGG	-0.0228
CGTCATAG	-0.092
GAACATAA	0.0111
GGGATGAC	-0.151
AACTTGGA	-0.0439
